# Reference: a collection of fitness landscapes (doi:10.1016/j.celrep.2020.107928)
# Whole data set: some 81,000 sequences, median “one-hybrid fitness for binding parS DNA” near -0.17, cut for the highest 2% near 0.51. The list shows a part of the results.
# B1: Caulobacter ParB omega fusion; a variant is named by its letters at X, in order, B8GW30 (parent)
# chain: MESVVVGEPGMSEGRRGLGRGLSALLGEVDAAPAQAPGEQLGGSREAPIEILQRNPDQPRRTFREEDLEDLSNSIREKGVLQPILVRPSPDTAGEYQIVAGERAWRAAQRAGLKTVPIMVRELDDLAVLEIGIIENVQRADLNVLEEALSYKVLMEKFERTQENIAQTIGKSXSHVANXMRLLXLPDEVQSYLVSGELTAXHARAIAAAADPVALAKQIIEGGLSVRETEALARKAPNLSAGKSKGGRPPRVKDTDTQALESDLSSVLGLDVSIDHRGSTGTLTITYATLEQLDDLCNRLTRGI
# Variants of: B1
# Assay: one-hybrid fitness for binding parS DNA (scaled: cognate 1, non-cognate 0); higher = stronger binding
# Settings: with parS DNA site
# Method in brief: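 The reporter was HIS3, with the binding site 19 bp from the promoter, in E. coli USO used for bacterial one-hybrid selection of Caulobacter ParB libraries with four specificity codons randomised. Growth was on M9 lacking histidine, with 0.1 mM IPTG and 5 mM 3-AT, for 48 hours at 37°C. Illumina sequencing covered plasmids before and after selection; three replicate libraries were pooled and variants with under 10 reads dropped. A fitness score is the log change in variant-to-wild-type read ratio, rescaled to the cognate and non-cognate references.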
row,Variant,one-hybrid fitness for binding parS DNA
1,PSTA,≤ 0.2
2,EVSE,≤ 0.2
3,PVES,≤ 0.2
4,RPVP,≤ 0.2
5,ERHN,≤ 0.2
6,FDHS,≤ 0.2
7,SHTN,≤ 0.2
8,RKYI,≤ 0.2
9,KYRQ,≤ 0.2
10,GGTG,≤ 0.2
11,ICRD,≤ 0.2
12,KQLG,≤ 0.2
13,FQLR,≤ 0.2
14,HAQC,≤ 0.2
15,VTRS,≤ 0.2
16,MEKS,≤ 0.2
17,RKAW,≤ 0.2
18,RADN,0.372
19,PWAI,≤ 0.2
20,MLMT,≤ 0.2
21,HHKT,≤ 0.2
22,RWII,≤ 0.2
23,NDKS,≤ 0.2
24,HGTT,≤ 0.2

row,Variant,one-hybrid fitness for binding parS DNA
1,MMLC,≤ 0.2
2,ITQT,≤ 0.2
3,QLRP,≤ 0.2
4,WIQC,≤ 0.2
5,LTMR,≤ 0.2
6,TIMG,≤ 0.2
7,NRTR,≤ 0.2
8,FKQR,≤ 0.2
9,QVGR,≤ 0.2
10,QAEK,≤ 0.2
11,CSAE,≤ 0.2
12,DNSD,≤ 0.2
13,CGET,≤ 0.2
14,SSYY,≤ 0.2
15,FFQR,≤ 0.2
16,LYYR,≤ 0.2
17,HMGC,≤ 0.2
18,PLAN,≤ 0.2
19,HPAI,≤ 0.2
20,RAMK,≤ 0.2
21,GPIF,≤ 0.2
22,NKDH,≤ 0.2
23,TRIL,≤ 0.2
24,TRYA,≤ 0.2

row,Variant,one-hybrid fitness for binding parS DNA
1,NYKS,≤ 0.2
2,SFEL,≤ 0.2
3,SVQG,≤ 0.2
4,CGSD,≤ 0.2
5,RIPF,≤ 0.2
6,KYRV,≤ 0.2
7,ERAK,≤ 0.2
8,NRCA,≤ 0.2
9,GESY,≤ 0.2
10,NFSF,≤ 0.2
11,SIIN,≤ 0.2
12,ADGR,≤ 0.2
13,TDRL,≤ 0.2
14,CHNG,≤ 0.2
15,KAYT,≤ 0.2
16,TMIC,≤ 0.2
17,CHDT,≤ 0.2
18,EGAY,≤ 0.2
19,AWQF,≤ 0.2
20,RFVN,0.26
21,KDKS,≤ 0.2
22,KKKI,≤ 0.2
23,ARQC,≤ 0.2
24,IKCT,≤ 0.2

row,Variant,one-hybrid fitness for binding parS DNA
1,EPYS,≤ 0.2
2,PEYR,≤ 0.2
3,TSRR,≤ 0.2
4,FLTR,≤ 0.2
5,NVQW,≤ 0.2
6,QTDK,≤ 0.2
7,AWPG,≤ 0.2
8,RRVY,0.247
9,KDMS,≤ 0.2
10,QNKW,≤ 0.2
11,NKRA,≤ 0.2
12,IAVM,≤ 0.2
13,SDVT,≤ 0.2
14,VDGL,≤ 0.2
15,WMEG,≤ 0.2
16,TISC,≤ 0.2
17,QEEK,≤ 0.2
18,TLSI,≤ 0.2
19,NHVF,≤ 0.2
20,CYHG,≤ 0.2
21,HHFS,≤ 0.2
22,HLEL,≤ 0.2
23,DDLR,≤ 0.2
24,AHPL,≤ 0.2

row,Variant,one-hybrid fitness for binding parS DNA
1,NQTC,≤ 0.2
2,YLFG,≤ 0.2
3,AERW,≤ 0.2
4,ATET,≤ 0.2
5,SSKG,≤ 0.2
6,GVHS,≤ 0.2
7,STDN,≤ 0.2
8,RQEM,0.255
9,RGWG,0.51
10,VTSM,≤ 0.2
11,FYRV,≤ 0.2
12,MFAT,≤ 0.2
13,TRTK,≤ 0.2
14,FQRG,≤ 0.2
15,APRW,≤ 0.2
16,RRGP,≤ 0.2
17,FYRL,≤ 0.2
18,LQVF,≤ 0.2
19,DMPR,≤ 0.2
20,INKG,≤ 0.2
21,AREV,≤ 0.2
22,IASV,≤ 0.2
23,LEWE,≤ 0.2
24,HSRA,≤ 0.2

row,Variant,one-hybrid fitness for binding parS DNA
1,VNST,≤ 0.2
2,FNTF,≤ 0.2
3,RSSF,0.24
4,PSRF,≤ 0.2
5,RRMR,≤ 0.2
6,RIMF,0.247
7,TADE,≤ 0.2
8,SCGG,≤ 0.2
9,PMHY,≤ 0.2
10,FSHF,≤ 0.2
11,DCSL,≤ 0.2
12,VNQS,≤ 0.2
13,QVKD,≤ 0.2
14,RWIS,0.609
15,WKHR,≤ 0.2
16,TVLS,≤ 0.2
17,AAMG,≤ 0.2
18,APGT,≤ 0.2
19,TFRI,≤ 0.2
20,NWIG,≤ 0.2
21,HMCG,≤ 0.2
22,RKTF,≤ 0.2
23,PSMV,≤ 0.2
24,LTEV,≤ 0.2

row,Variant,one-hybrid fitness for binding parS DNA
1,AYAF,≤ 0.2
2,RTDE,≤ 0.2
3,SFPT,≤ 0.2
4,CYYT,≤ 0.2
5,KNWG,≤ 0.2
6,RHYW,≤ 0.2
7,IAPK,≤ 0.2
8,HYVL,≤ 0.2
9,ALIA,≤ 0.2
10,LRMI,≤ 0.2
11,VCER,≤ 0.2
12,GTSN,≤ 0.2
13,TQPR,≤ 0.2
14,GIMC,≤ 0.2
15,HMRS,≤ 0.2
16,PLPT,≤ 0.2
17,CRDS,≤ 0.2
18,NSQD,≤ 0.2
19,PIMH,≤ 0.2
20,QVAD,≤ 0.2
21,WMLC,≤ 0.2
22,AHTA,≤ 0.2
23,LTNA,≤ 0.2
24,AYCS,≤ 0.2

row,Variant,one-hybrid fitness for binding parS DNA
1,TMPR,≤ 0.2
2,ETTN,≤ 0.2
3,NKGM,≤ 0.2
4,GSYA,≤ 0.2
5,KVML,≤ 0.2
6,AFFE,≤ 0.2
7,PCEH,≤ 0.2
8,SAIH,≤ 0.2
9,RPNK,≤ 0.2
10,STVM,≤ 0.2
11,HCMT,≤ 0.2
12,HMKR,≤ 0.2
13,YTKL,≤ 0.2
14,GYAC,≤ 0.2
15,HRSC,0.324
16,RRSI,≤ 0.2
17,RTHY,0.544
18,YSKT,≤ 0.2
19,SQDI,≤ 0.2
20,NKYR,≤ 0.2
21,PALP,≤ 0.2
22,ASGL,≤ 0.2
23,HARE,≤ 0.2
24,GTGM,≤ 0.2

row,Variant,one-hybrid fitness for binding parS DNA
1,FPVV,≤ 0.2
2,RLRL,≤ 0.2
3,DWLG,≤ 0.2
4,WPLF,≤ 0.2
5,SDRW,≤ 0.2
6,DVKR,≤ 0.2
7,NDCC,≤ 0.2
8,LEAR,≤ 0.2
9,PAPS,≤ 0.2
10,GPKY,≤ 0.2
11,RVEY,0.353
12,RYGR,≤ 0.2
13,EFGP,≤ 0.2
14,CRPN,≤ 0.2
15,ARVC,≤ 0.2
16,QFQT,≤ 0.2
17,PFMR,≤ 0.2
18,SMRH,≤ 0.2
19,SHNC,≤ 0.2
20,QAGT,≤ 0.2
21,DKDR,≤ 0.2
22,ERVL,≤ 0.2
23,YIES,≤ 0.2
24,VIHT,≤ 0.2

row,Variant,one-hybrid fitness for binding parS DNA
1,NGGS,≤ 0.2
2,QRQA,≤ 0.2
3,TRRR,≤ 0.2
4,TEYG,≤ 0.2
5,VCGS,≤ 0.2
6,NSHM,≤ 0.2
7,TTQT,≤ 0.2
8,TRGL,≤ 0.2
9,KSID,≤ 0.2
10,HPLV,≤ 0.2
11,LIIM,≤ 0.2
12,GHER,≤ 0.2
13,MVVG,≤ 0.2
14,TGHA,≤ 0.2
15,GHAS,≤ 0.2
16,VSTI,≤ 0.2
17,QYAT,≤ 0.2
18,RIAM,0.367
19,EDRT,≤ 0.2
20,QFDS,≤ 0.2
21,TRHQ,≤ 0.2
22,KNHK,≤ 0.2
23,TMPG,≤ 0.2
24,HAGL,≤ 0.2

row,Variant,one-hybrid fitness for binding parS DNA
1,ATAR,≤ 0.2
2,FHID,≤ 0.2
3,CCRG,≤ 0.2
4,FKYS,≤ 0.2
5,SFPH,≤ 0.2
6,ARVR,≤ 0.2
7,WVRP,≤ 0.2
8,STQC,≤ 0.2
9,TRGT,≤ 0.2
10,LAQL,≤ 0.2
11,PWGV,≤ 0.2
12,IHRA,≤ 0.2
13,GPSS,≤ 0.2
14,VGAL,≤ 0.2
15,WNNE,0.298
16,NQTW,≤ 0.2
17,VYEA,≤ 0.2
18,YKFG,≤ 0.2
19,QDNE,≤ 0.2
20,GLQN,≤ 0.2
21,PNGG,≤ 0.2
22,ARYS,≤ 0.2
23,GGHP,≤ 0.2
24,AKDA,≤ 0.2

row,Variant,one-hybrid fitness for binding parS DNA
1,MLCC,≤ 0.2
2,SSVI,≤ 0.2
3,RLIY,0.437
4,TSGA,≤ 0.2
5,RGCT,0.51
6,NHPH,≤ 0.2
7,DAYT,≤ 0.2
8,DTLN,≤ 0.2
9,VMTN,≤ 0.2
10,ILFW,≤ 0.2
11,GWPG,≤ 0.2
12,LRYG,≤ 0.2
13,PHDI,≤ 0.2
14,HVTR,≤ 0.2
15,QHRQ,≤ 0.2
16,YVGY,≤ 0.2
17,KPYI,≤ 0.2
18,KPGC,≤ 0.2
19,HNNE,≤ 0.2
20,TWYA,≤ 0.2
21,PVLP,≤ 0.2
22,AHST,≤ 0.2
23,GAWR,≤ 0.2
24,IHVA,≤ 0.2

row,Variant,one-hybrid fitness for binding parS DNA
1,RGND,≤ 0.2
2,NNTS,≤ 0.2
3,YNPS,≤ 0.2
4,YLGV,≤ 0.2
5,AIRG,≤ 0.2
6,NHTW,≤ 0.2
7,IATQ,≤ 0.2
8,QHHR,≤ 0.2
9,VQKT,≤ 0.2
10,MTSI,≤ 0.2
11,MWNR,≤ 0.2
12,QKAA,≤ 0.2
13,HICM,≤ 0.2
14,LCPC,≤ 0.2
15,GKYR,≤ 0.2
16,NERW,≤ 0.2
17,LFLL,≤ 0.2
18,GVVT,≤ 0.2
